B1: B2030 (protein)
chain 1: QVQLVQSGAEVKKPGSSVKVSCKASGGTFSTYAIIWVRQAPGQGLEWMGGIIPVFDAANSAQKFQGRVTITADKSTSTAYMELSSLRSEDTAVYYCARVKRLWHESVARYYFDYWDQGTLVTVSS
chain 2: IRMTQSPSSLSASVGDRVTITCQASQDISNYLNWYQQKPGKAPKLLIYDASNLETGVPSRFSGSGSGTDFTFTISSLQPEDIATYYCQQYENLPVLSFGGGTKVEIK
B2: B2027 (protein)
chain 1: VQLVESGGGVVQPGRSLRLSCAVSGFAFRKYGIHWVRQAPGKGLEWVAVISYDGGNIDYADSVKGRFTISRDNSKDTVYLEMNNLRAEDTAVYYCAKQTGTYCSGGNCYSGYFDYWGQGTLVTVSS
chain 2: AIRMTQSPSSLSASVGDRVTITCRASQGISSALVWYQQKPGKAPKLLIYDASSLESGVPSRFSGSGSGADFTLTISSLQPEDFATYYCQQFYDSPPLTFGGGTKVEIK
B3: B2028 (protein)
chain 1: VQLVESGGGVVQPGRSLRLSCAASGFTISTYGMHWVRQAPGKGLEWVAVISYDGSNIYYADSVKGRFTISRDNSNNTLYLQMNSLRAEDTAVYYCAKQNAPYCSGGSCYEGYFDYWGQGALVTVSS
chain 2: EIVLTQSPGTLSLSPGERATLSCRASQSVTSSYLAWYQQKPGQAPRLLISGASSRATGIPDRFSGSGSGTDFTLTISRLEPEDFAVYYCQQYGSSLLTFGGGTKVEIK
B4: B2029 (protein)
chain 1: QVQLVQSGAEVKKPGSSVKVSCKASGGTFRIYAINWVRQAPGQGLEWMGGIIPMVGKANYAQKFRGRVTITADESTSTAYMELSSLRSEDTAVYYCARDFRECTSTSCLYFFDYWGQGTLVTVSS
chain 2: DIQLTQSPSSLSASVRDRVTLTCRASQNITTYLNWYQQKPGKAPKLLIYAASSLQSGVPSRFSGSGSGTDFTLTISSLQPEDFATYYCQQSFSGPRTFGLGTKVEIK
B5: B2026 (protein)
chain 1: EVQLVESGGGLVQPGRSLRLSCAASGFSFEDYAMHWVRQAPGKGLEWVSGISGNSGTLGYADSVKGRFIISRDNAKNSLYLQMRSLRVEDTALYYCAKDMAGVVILGVEEKYGMDVWGQGTTVTVSS
chain 2: SYELTQPPSVSVAPGKTAKITCGGDNIGSKSVHWYKQKPGQAPLLVIYYDNDRPSQIPERFSGSNSGNMATLTINRVEAGDEADYYCQVWNSGSDHVVFGGGTKLTVL
B6: B2025 (protein)
chain 1: EVQLVETGGGLIQPGGSLRLSCAASEILVSRNYMSWVRQAPGKGLEWVSVLFPGGSTNYADPVKGRFTISRDNSKNTLYLQMNSLRAEDTAVYYCARGLFGEWGYFDCWGQGTLVTVSS
chain 2: DIQLTQSPSSLSASVGDRVTITCRASQGISNYLAWYQQKPGKAPKLLISAASTVESGVSSRFSGSGSGTDFTLTISSLQSEDVATYYCQKYNSAPGTFGQGTKVEIK
B7: B2024 (protein)
chain 1: QLVQSGPEVKKPGTSVKVSCKASGFTFTTSAVQWVRQARGQRLEWIGWIAVGSGKTEYAQKFQERVALSRDTSANTAYMDLRSLTSEDTAVYYCAAPDCNRTTCLDGFDIWGQGTMVTVSS
chain 2: EIVLTQSPGTLSLSPGERTTLSCRASQSVSRNYLAWYLQKPGQAPRLLIYAASSRATGIPDRFSGSGSGTDFTLAISRLEPEDFAVYYCQQYGTSPWTFGQGTKLEIK

Recombinant human monoclonal antibodies (heavy:light variable regions). ELISA EC50 on the named antigen, from 10 µg/ml down; IC50 / IC90 against spike pseudovirus on 293T-ACE2 cells, 48 h; lower = stronger. Calls: IC50 above 1,000 ng/ml = non-neutralizing; EC50 above 1,000 ng/ml = non-binder. The source prints 1000 for neutralization that was not reached; it is given as >1000 ng/ml. Only binders of the Wuhan-Hu-1 domain have neutralization values. A value given as a limit tells only on which side of the number the result lay.

We go through 7 molecules from the supplement of paper PMC9513381.

The first assay concerns the target SARS-CoV-2 Wuhan-Hu-1 spike pseudovirus. Put plainly: pseudovirus neutralization IC50; higher = weaker neutralization. Here is the method:
(§1)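 Single-round luciferase reporter pseudovirus mixed with antibody dilutions and put on 293T-ACE2 cells for 48 h; signal relative to no-antibody wells, four-parameter fit.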
Take B1: the “pseudovirus neutralization IC50” value amounted to 0.00366 µg/mL.
B2: the “pseudovirus neutralization IC50” value is over 1 µg/mL.
With B3, the “pseudovirus neutralization IC50” value is over 1 µg/mL.
On to B4, for which the “pseudovirus neutralization IC50” value was determined as 0.0036 µg/mL.
B5: the “pseudovirus neutralization IC50” value worked out at 0.0056 µg/mL.
As to B6, the “pseudovirus neutralization IC50” value turned out to be 0.0134 µg/mL.
The same measure, in the same setting: for B7 the value was 0.00625 µg/mL.

For the next assay the target is unchanged. Put plainly: pseudovirus neutralization IC90; higher = weaker neutralization. Here is the method: as §1
In the case of B1, the “pseudovirus neutralization IC90” value was found to be 0.0227 µg/mL.
Turning to B2, the “pseudovirus neutralization IC90” value is over 1 µg/mL.
Still for that read-out and setting: the same measure for B3: over 1 µg/mL.
Regarding B4, the “pseudovirus neutralization IC90” value is 0.0228 µg/mL.
Regarding B5, the “pseudovirus neutralization IC90” value turned out to be 0.145 µg/mL.
Regarding B6, the “pseudovirus neutralization IC90” value was 0.0919 µg/mL.
Consider B7, for which the “pseudovirus neutralization IC90” value was determined as 0.0401 µg/mL.

The next assay concerns the target SARS-CoV-2 Delta (B.1.617.2) spike RBD. As to the kind of experiment: ELISA binding EC50; higher = weaker binding; ELISA of recombinant human antibody on coated antigen, from 10 µg/ml in fourfold dilutions; four-parameter fit. On the technique in general: In an ELISA, binding on a coated surface is turned into a signal by an enzyme label.
On to B1, for which the “ELISA binding EC50” value is over 1 µg/mL.
On the same count and under the same terms, for B2 the value was 0.0152 µg/mL; for B3, 0.0979 µg/mL; for B4, 0.0492 µg/mL.
For the molecule B5, the “ELISA binding EC50” value amounted to 0.01 µg/mL.
As for B6, the “ELISA binding EC50” value was determined as 0.0131 µg/mL.
Consider B7, for which the “ELISA binding EC50” value is 0.00952 µg/mL.

Another assay deals with SARS-CoV-2 Omicron BA.1 spike protein. Described as above.
For B1, the “ELISA binding EC50” value stood at 0.00368 µg/mL.
In the case of B2, the “ELISA binding EC50” value worked out at 0.00594 µg/mL.
For B3, the “ELISA binding EC50” value was 0.0485 µg/mL.
For the molecule B4, the “ELISA binding EC50” value is over 1 µg/mL.
Turning to B5, the “ELISA binding EC50” value was determined as 0.00875 µg/mL.
As for B6, the “ELISA binding EC50” value is over 1 µg/mL.
Still for that read-out and setting: for B7 the value was 0.021 µg/mL.

The target in a further assay is SARS-CoV-2 Wuhan-Hu-1 spike receptor-binding domain. The assay is described as above.
With B1, the “ELISA binding EC50” value worked out at 0.00072 µg/mL.
Take B2: the “ELISA binding EC50” value stood at 0.00244 µg/mL.
On to B3, for which the “ELISA binding EC50” value is 0.0116 µg/mL.
On the same count and under the same terms, for B4 the value was 0.00237 µg/mL.
Take B5: the “ELISA binding EC50” value stood at 0.00331 µg/mL.
For the molecule B6, the “ELISA binding EC50” value was found to be 0.0104 µg/mL.
The same measure, in the same setting: for B7 the value was 0.0015 µg/mL.
